# Sequences with one replicate were seen in a single cluster, so their values are uncertain.
# Tested on: ATP
# Assay: switch fluorescence ratio, 500 uM ATP over buffer (Cy3 cluster intensity, sum of 5 cycles each) (fold (ratio)); higher = stronger signal-on switching upon ATP binding; sequences stand for … in TCGTCGGCAGCGTCAGATGTGTATAAGAGACAGTTTTTTTTTTTTTTTTTTTTTTTTT…TC
# Conditions: aptamer strand: ATP DNA aptamer (quencher-CACCTGGGGGAGTATTGCGGAGGAAGG + anchor), 100 nM annealed; ATP concentration: 500 uM; one replicate
# In short: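 Cy3-labelled switching-strand clusters on a modified Illumina MiSeq flow-cell were annealed to 100 nM quencher-labelled ATP aptamer, imaged in selection buffer, then imaged after 15 min with 500 uM ATP at 22 °C. Five buffer/ATP cycles ran, with NaOH stripping and re-annealing between them. The fluorescence ratio is summed target-cycle over summed buffer-cycle Cy3 intensity per cluster, averaged per switch-domain sequence. Clusters outside 100-1000 RFU were excluded.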
# 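Note: ATP exposure 15 min at 22 °C before imaging.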
row,Sequence,switch fluorescence ratio
1,CCATCTTTTA,1
2,CCATGACTGT,0.959
3,CCATGCTTGG,0.95
4,CCATGGATGC,1.06
5,CCATGGCATG,1.05
6,CCATGGCTAA,1.02
7,CCATGGGGAA,1.04
8,CCATGTGAG,0.996
9,CCATGTGCGG,1.02
10,CCATGTTTAC,1.06
11,CCATTACGAT,1.06
12,CCATTCATGG,0.973
13,CCATTCCCCG,1.97
14,CCATTGAACT,1.04
15,CCATTGCATG,1.08
16,CCATTGTAG,1.03
17,CCATTTAAC,1.02
18,CCATTTAGCC,0.972
19,CCCAAAACAA,1.47
20,CCCAAATGCC,1.06
21,CCCAAGGGCC,1
22,CCCAATGGCT,1.13
23,CCCACAATTT,1.24
24,CCCACCTGAG,1.31
25,CCCACGAAGT,1.04
26,CCCACGTCTG,1.04

row,Sequence,switch fluorescence ratio
1,CCCAGACAGG,1.13
2,CCCAGAGAGA,1.02
3,CCCAGATGGC,1.19
4,CCCAGCAGAG,2.03
5,CCCAGGTCTG,1.88
6,CCCAGTATCA,1.18
7,CCCAGTGAA,1.13
8,CCCAGTTTGT,1.09
9,CCCATAAGTT,1.01
10,CCCATCTAGT,0.975
11,CCCATCTTGT,0.977
12,CCCATGCGCA,1.05
13,CCCATTATCT,1.01
14,CCCATTGCAG,1.08
15,CCCCAAAGTT,0.957
16,CCCCAGACCA,1.13
17,CCCCCGTCGT,1.31
18,CCCCGAACGG,1.06
19,CCCCGGATTG,1.64
20,CCCCGGGATT,1.14
21,CCCCGGTGAA,2.09
22,CCCCGGTGTG,3.37
23,CCCCGTCGTC,1.21
24,CCCCTCAACA,1.11
25,CCCCTCGCTA,4.41
26,CCCCTCGGCG,1.23

row,Sequence,switch fluorescence ratio
1,CCCCTTCAA,1
2,CCCCTTGGGC,1.04
3,CCCGAAAAAC,1.24
4,CCCGAAAGAG,1.79
5,CCCGAAGAAA,4.2
6,CCCGATAGCT,1.12
7,CCCGCACTGT,3.52
8,CCCGCAGTCG,2.11
9,CCCGCATTTT,3.04
10,CCCGCCTAAT,1.5
11,CCCGCGCGGA,1.48
12,CCCGGAAGCC,1.86
13,CCCGGAATGA,2.2
14,CCCGGACTGA,1.02
15,CCCGGAGACT,1.19
16,CCCGGAGGTA,1.06
17,CCCGGCCTAT,1.02
18,CCCGGCTCTG,1.02
19,CCCGGGAACA,1.14
20,CCCGGGACGA,1.04
21,CCCGGGAGAT,1.01
22,CCCGGGGAAT,1.86
23,CCCGGTCA,1.03
24,CCCGGTTGGG,0.995
25,CCCGTACTTG,0.975
26,CCCGTAGATA,1.07

row,Sequence,switch fluorescence ratio
1,CCCGTCGTGT,1.09
2,CCCGTCTGAC,1.23
3,CCCGTGGCGT,1.07
4,CCCGTGTGGG,0.994
5,CCCGTTCGC,1.22
6,CCCTAAGATG,1.04
7,CCCTACCAGT,1.05
8,CCCTCAAACG,1.02
9,CCCTCTGTTG,1.14
10,CCCTGACGCC,3.45
11,CCCTGCACTT,1.42
12,CCCTGCCGCT,1.13
13,CCCTGGCCTT,0.97
14,CCCTTGAATG,1.02
15,CCCTTGGGCG,1
16,CCCTTGTTAA,1.26
17,CCGAACGGGT,1.25
18,CCGAAGCCGT,1.72
19,CCGAAGGGCG,0.974
20,CCGACAAGTT,3.35
21,CCGACAGTTG,1.13
22,CCGACGATG,1.93
23,CCGACTGGAT,1.19
24,CCGACTTCAC,3.43
25,CCGAGAAAAC,2.36
26,CCGAGGTGGG,1.06

row,Sequence,switch fluorescence ratio
1,CCGAGTCGCT,1.47
2,CCGATAGACG,0.999
3,CCGATGAGAT,2.8
4,CCGCAGTTTG,4.1
5,CCGCATTCAC,2.14
6,CCGCCAGCGT,2.52
7,CCGCCGATC,3.68
8,CCGCCGCAGC,1.65
9,CCGCCGGGCA,1.16
10,CCGCGAATGT,4.5
11,CCGCGCGCTT,1.99
12,CCGCTCAATC,4.86
13,CCGCTGGCTT,1.51
14,CCGCTTGCTA,2.53
15,CCGGAAGTAA,5.1
16,CCGGACTTCT,1.06
17,CCGGAGGACC,1.16
18,CCGGATAAGC,1.46
19,CCGGATAGT,1.11
20,CCGGATGGTA,1.03
21,CCGGATGTAA,1.55
22,CCGGATTTCA,0.994
23,CCGGCACTTA,1.12
24,CCGGCCAGCG,1.25
25,CCGGCCGAAA,1.6
26,CCGGCGAAGT,1.1

row,Sequence,switch fluorescence ratio
1,CCGGCGAGGT,1.03
2,CCGGCGGGAC,2.3
3,CCGGCGTGGG,1.07
4,CCGGCTCCAA,2.08
5,CCGGCTGTGT,1.03
6,CCGGCTTTGA,1.04
7,CCGGGAAAAG,1.06
8,CCGGGACCTG,0.991
9,CCGGGAGAG,1.33
10,CCGGGATATT,1.31
11,CCGGGCA,1.1
12,CCGGGCACAG,1.32
13,CCGGGCGCG,1.17
14,CCGGGCGCGG,1
15,CCGGGCGCTA,1.72
16,CCGGGGATGA,1.01
17,CCGGGGCATA,6
18,CCGGGGCGAA,1.56
19,CCGGGGGAGC,0.979
20,CCGGGGGAT,1.96
21,CCGGGGGATA,1.05
22,CCGGGTGGCG,1.01
23,CCGGTCCAGG,2.21
